Test results reported in the supplement of paper PMC8277577.
Where a chain is given by its changes, count along the chain named. Recombinant human monoclonal antibodies (heavy:light variable regions). ELISA EC50 on the named antigen, from 10 µg/ml down; lower = stronger. No active / inactive call.

B1: C1034 (protein)
chain 1: QLQLQESGPGLVKPSETLSLTCTVSGGSVSSNNHYWGWIRQPPGKGLEWIGSISSSGSTHHNPSLRSRVTISVDTSKNHFSLKLNSVTATDTAVYYCARVDSSGWYTGDVFDVWGQGTMVTVSS
chain 2: DIQMTQSPSSLSASVGDRVTITCRASQTINNYLNWYQQKPGKPPKLLIYAAFSLHSGVPSRFSGSRSGTDFTLTISSLQPEDFATYYCQHSYSTMCSFGQGTKLEIK
B2: C852 (protein)
chain 1: QVQLVQSGAEVKKPGASVKVSCKASGYIFTGFYMHWVRQAPGQGPEWMGWINPNSGGTNYAQKFQGRVTMTRDTSISTAYMELSRLRSDDTALYYCARGGQDELTGTFDVWGQGTMVTVSS
chain 2: SYELTQPPSVSLAPGKTASITCGGDSIGSKSVHWYQQRPGQAPILVIYYDGDRPSGIPERFSGSNSGNTATLTISRVEAGDEADYYCQVWDGGWVFGGGTKLTVL
B3: C1032 (protein)
chain 1: EVQLVESGGSLVKPGGSLRLSCVASGLTFNHAWMSWVRQAPGKGLEWVGRIKSKIDGGTTDYAAPVKGRFTISRDDSKSTQYLQMNSLKTEDTAVYYCTTDCFWRLGGTTCYEHDAFDVWGQGTMVTVS
chain 2: DIQMTQSPSSLSASVGDRVTITCRASQAIATFLNWYQQKPGKAPKLLIYAASSLQSGVPSRFSGSGSGTDFTLTISSLQPEDFATYYCQQSYNSLHFGGGTKVEIK
B4: C1038 (protein)
chain 1: QVQLVQSGAEVKKPGASVKVSCKASGYTFTSYYMHWVRQAPGQGLEWMGIINPSGGSTRYAQKFQGRVTMTRDTSTSTVYMELSSLRSEDTAVYYCAREGVGGTSYFDYWGQGTLVTVSS
chain 2: SYELTQPPSVSVAPGKTARITCGGNNIGSKSVHWYQQKPGQAPVLVVYDDSDRPSGIPERFSGSNSGNTATLTISRVEAGDEADYYCQVWDSSSDPYVFGTGTKVTVL
B5: C1039 (protein)
chain 1: QVQLVQSGAEVKKPGASVKVSCKASGYTFTSHYMHWVRQAPGQGLEWMGIINPRTRYAQMFQGRVSMNRDTSTSTVYMELSSLTSEDTAVYYCAREGLGATAYFDYWGQGTLVTVSS
chain 2: B4 chain 2 with R19G, N25S, N26D, T106S
B6: C1033 (protein)
chain 1: QVQLVQSGAEVKKPGSSVKVSCKASGGTFSRNVISWVRQAPGQGLEWMGGIIPMFGTANYAQKFQGRVTISADESTSTAYMELSSLRSEDTAVYYCAREDFILESAPIRENSYYYYGMDVWGQGTTVTVSS
chain 2: EIVLTQSPGTLSLSPGERATLSCRASQSVSSNYLAWYQQKPGQAPRLLIYDASSRATGIPDRFSGSGSGTDFTLTIRRLEPEDFAVYYCQQYGGSPRTFGQGTKVEIK
B7: C1035 (protein)
chain 1: EVQLVESGGGLIQPGGSLRLSCAASGLTVSRNYMNWVRQAPGKGLEWVSVMYSGGSTFYADSVKGRFTISRDNSKNTLYLQMNSLRAEDTAVYYCARESYGMDVWGQGTTVTVSS
chain 2: B6 chain 2 with V29F, N32T, D51G, R77S, G93V, G94T, R97W
B8: C1036 (protein)
chain 1: B7 chain 1 with T28I, A40V, S53A, N73D, A87P
chain 2: B6 chain 2 with V29I, N32T, D51G, R77S, G93V, G94T, R97W
B9: C1031 (protein)
chain 1: QLQLQESGPGLVKPSETLSLTCTVSGGSINTSTYYWGWIRQPPGKGLEWIGNIYYSGITYYNPSLKSRVTISVDTSKNQFSLKLRSVTAADTAVYYCARQHRFGSGSSELLWGQGTLVTVSS
chain 2: QSALTQPPSASGSPGQSVTISCTGTSSDVGSYNYVSWYQQHPGKAPKLMIYEVTKRPSGVPDRFSGSKSGNTASLTVSGLQADDEADYYCSSYAGSSNLVFGGGTKLTV
B10: C1030 (protein)
chain 1: EVQLVESGGGLVQPGGSLRLSCEASGVIVSSNYMNWVRQAPGKGPEWVSVLYAGGSTFYADSVKGRFTISRDDSKNTLFLQMNNLRAEDTAVYFCARDLIAFGMDVWGQGTTVTVSS
chain 2: DIQLTQSPSFLSASVGDRVTITCRASQGINSDLAWYQQKPGKAPKLLIYGASTLQSGVPSRFSGSGSGTEFSLTVSSLQPEDFATYYCQQLNSYRRFGGGTKVEIK

Target: SARS-CoV-2 Wuhan-Hu-1 spike receptor-binding domain
Assay: ELISA binding EC50; higher = weaker binding; ELISA of recombinant human antibody on coated antigen, from 10 µg/ml in fourfold dilutions; four-parameter fit.

Binder	ELISA binding EC50
B1	2.77 ng/mL
B2	4.59 ng/mL
B3	2.89 ng/mL
B4	2.46 ng/mL
B5	2.61 ng/mL
B6	3.63 ng/mL
B7	2.05 ng/mL
B8	1.02 ng/mL
B9	7.23 ng/mL
B10	2.78 ng/mL
